Data published in PubChem BioAssay AID463173 (ICCB-Longwood Screening Facility, Harvard Medical School, 2010).
About 1,700 (3.3%) of roughly 52,000 compounds were called active. No stated cut-off is given here; in the data, active means survival mostly below about 52% (no sharp cut-off); inactive means mostly above about 56%. The list shows a part of the results.

What follows are molecules tested on Wild type (assay: S. aureus survival, RN4220 and DeltatarO strains – OD600, teichoic acid synthesis inhibitors, primary screen (AID 463173)). Details: S. aureus RN4220 wild type/DeltatarO growth, OD600, 18 h, hits give low values, screened at 18.75 µg/mL (by protocol).
`Cc1cccc(NC(=O)c2sc3cccc(Cl)c3c2Cl)c1` was tested, and the survival was active: 6%.
`Cc1cccc(C)c1NC(=O)c1ccc2nc(CCc3ccccc3)oc2c1` was tested, and the survival was inactive: 69%.
`CCCCNC(=O)CSc1c2c(nc3ccc(Cl)cc13)CCCC2` was tested, and the survival was inactive: 66%.
In the case of `COc1ccc(-c2nc3ccccc3s2)cc1NC(=O)c1ccccc1OC`, the survival is reported as inactive: 53%.
With `CNC(=O)c1c(NC(=O)c2cc(=O)c3ccccc3o2)sc2c1CCC2` the survival was inactive: 73%.
For `COc1ccc(CCNC(=O)c2ccc3c(c2)nc2n3CCOC2)cc1OC`, the survival was active: -4%.
`Cn1c(=O)c2sccc2n2c(CCCC(=O)Nc3ccc(F)c(F)c3)nnc12` was tested, and the survival was inactive: 105%.
`COc1cccc(-c2nc(S(=O)(=O)c3ccccc3)c(NCc3ccccc3)o2)c1` was tested, and the survival was inactive: 84%.
For `COc1cccc(-c2cc(C(F)(F)F)nc(NCc3ccc(F)cc3)n2)c1`, the survival was active: 0%.
`CC(C)c1ccc(NC(=O)CCS(=O)(=O)c2ccc(Br)s2)cc1` was tested, and the survival was inactive: 130%.
With `CC1=C(C(=O)Nc2ccccc2)C(c2ccncc2)n2nc(SCc3ccccc3)nc2N1` (stereo unspecified) the survival was inactive: 75%.
For `Cc1cccc2cc(C#N)c(SCC#N)nc12`, the survival was inactive: 103%.
`COCCCNC(=O)c1c(C)nn(-c2ccc(F)cc2)c1-n1cccc1` was tested, and the survival was inactive: 77%.
In the case of `Cc1c(C(=O)Nc2ccc(F)cc2F)nnn1-c1ccccc1Br`, the survival is reported as inactive: 68%.
In the case of `COc1ccc(C(=O)/C=C/c2cn(CC(O)CN(CC(C)C)CC(C)C)c3ccccc23)cc1OC` (stereo unspecified), the survival is reported as inactive: 60%.
In the case of `CCc1nn(CC(=O)NCc2cccc(OC)c2OC)c(=O)c2cc3occc3n12`, the survival is reported as inactive: 120%.
With `O=C(NCCCO)C(=O)Nc1c2c(nn1-c1ccc(F)cc1)CSC2` the survival was inactive: 119%.
`COc1ccc(NC(=O)C2=C(C)Nc3nc(SC)nn3C2c2cc(OC)ccc2OC)cc1` (stereo unspecified) was tested, and the survival was inactive: 72%.
For `Cc1nnc(N2CCC(C(=O)NCc3ccc(N(C)C)cc3)CC2)c2nn(-c3ccccc3)c(C)c12`, the survival was inactive: 113%.
In the case of `COc1cccc2cc(C(=O)N3CCCCC3)c(=O)oc12`, the survival is reported as inactive: 106%.
`c1ccc(N2CCN(c3ncnc4c3nc3n4CCCC3)CC2)cc1` was tested, and the survival was inactive: 69%.
For `O=C(CSc1nc2ccccc2n1Cc1cccc(Cl)c1)N1CCN(c2ccc(F)cc2)CC1`, the survival was inactive: 110%.
For `CN(CC(=O)Nc1cccc(C#N)c1)S(=O)(=O)c1cc2c(cc1Cl)NC(=O)CO2`, the survival was inactive: 129%.
For `CCOc1ccccc1CNC(=O)CC(C)n1ccc(C)n1` (stereo unspecified), the survival was inactive: 73%.
`COc1ccc(OC)c(CNC(=O)Cn2nc(C)c3c(C)n(-c4ccccc4)nc3c2=O)c1` was tested, and the survival was inactive: 81%.
With `Cc1cc2oc(C(=O)Nc3cccc(-c4nc5ccccc5o4)c3)c(C)c2cc1Cl` the survival was inactive: 91%.
